The source of these data is the supplement of paper PMC9446081.

Among all 39,000 compounds or so, about 220 (0.56%) showed activity. Some of the results follow.
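Also: static incubation at 37 °C against the wild-type strain, values averaged over two biological replicates.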

In this experiment the test system is Escherichia coli K-12 BW25113. The experiment is described as follows: relative growth (OD600 normalised to plate interquartile mean) (fraction); higher = less growth inhibition, active = 0.2 or less. The conditions noted are these: 50 µM; LB; incubation time: overnight (16-24 h).
For `C[C@@H]1CCCCO[C@@H](CN(C)S(=O)(=O)c2ccc(Cl)cc2)[C@@H](C)CN([C@H](C)CO)C(=O)c2cc(NS(=O)(=O)c3ccc(Cl)cc3)ccc2O1`, the relative growth was inactive: 1.01.

For the compound `CS(=O)(=O)N1[C@@H]2Cn3c(ccc(C4=CCCCC4)c3=O)[C@H]1[C@@H](C(=O)N1CCOCC1)[C@@H]2CO`, the relative growth was inactive: 1.01.

As for `C[C@H]1CN([C@@H](C)CO)S(=O)(=O)c2ccc(C#CC3CC3)cc2O[C@H]1CN(C)Cc1ccc(F)cc1`, the relative growth is inactive: 0.918.

`C[C@H](CO)N1C[C@H](C)[C@@H](CN(C)C(=O)Nc2ccc(C(F)(F)F)cc2)Oc2ccc(NS(=O)(=O)c3ccc(F)cc3)cc2C1=O`: the relative growth was inactive: 0.995.

On to `C[C@@H]1CN([C@H](C)CO)C(=O)c2cc(NC(=O)Nc3ccc4c(c3)OCO4)ccc2O[C@@H](C)CCCCO[C@@H]1CN(C)Cc1ccccc1`, for which the relative growth was inactive: 0.985.

In the case of `COc1ccc(C(=O)Nc2ccc(CN3C(=O)[C@]4(O[C@H](CC(=O)N(CCO)Cc5ccccc5)[C@@H]([Si](C)(C)c5ccc(OC)cc5)[C@@H]4C)c4ccccc43)cc2)cc1`, the relative growth was inactive: 1.03.

`C[C@H]1CN([C@@H](C)CO)C(=O)Cc2cc(NC(=O)Cn3cnnn3)ccc2O[C@H]1CN(C)S(=O)(=O)c1ccc(F)cc1`: the relative growth is inactive: 1.01.

On to `N[C@@H](CC(=O)N1CCn2c(nnc2C(F)(F)F)C1)Cc1cc(F)c(F)cc1F`, for which the relative growth was inactive: 0.977.

`CCS(=O)(=O)Nc1ccc2c(c1)C(=O)N(C)[C@@H]1CC[C@H](CC(=O)NCCOC)O[C@@H]1CO2`: the relative growth is inactive: 0.998.

Regarding `COc1ccc(NC(=O)Nc2cccc3c2O[C@H](CN(C)Cc2ccc(C(F)(F)F)cc2)[C@@H](C)CN([C@@H](C)CO)C3=O)cc1`, the relative growth is inactive: 0.817.

Take `CCCNC(=O)N1C[C@H](O)COC[C@H]2O[C@@H](CC(=O)N3CCN(C)CC3)CC[C@@H]21`: the relative growth was inactive: 0.989.

Regarding `C[C@@H]1CN([C@H](C)CO)C(=O)c2cccc(NC(=O)C3CCOCC3)c2O[C@H]1CN(C)C(=O)NC1CCCCC1`, the relative growth was inactive: 0.998.

Turning to `C[C@@H]1CN([C@@H](C)CO)S(=O)(=O)c2ccc(C#CC3CC3)cc2O[C@H]1CN(C)C(=O)c1cccc(F)c1`, the relative growth is inactive: 1.02.

Turning to `C[C@@H]1CCCCO[C@H](CN(C)S(=O)(=O)c2ccc(Cl)cc2)[C@H](C)CN([C@@H](C)CO)C(=O)c2cc(NC(=O)Nc3cccc4ccccc34)ccc2O1`, the relative growth is inactive: 1.02.

Consider `Cc1noc(C)c1S(=O)(=O)Nc1ccc2c(c1)C(=O)N([C@H](C)CO)C[C@@H](C)[C@H](CN(C)C(=O)NC1CCCCC1)O2`, for which the relative growth is inactive: 1.01.

Regarding `C[C@H](CO)N1C[C@H](C)[C@H](CN(C)S(=O)(=O)c2ccccc2F)Oc2cc(-c3ccncc3)ccc2S1(=O)=O`, the relative growth is inactive: 1.01.

Take `C[C@@H]1CN([C@H](C)CO)C(=O)c2cc(NC(=O)Nc3ccc(F)cc3)ccc2O[C@@H](C)CCCCO[C@H]1CN(C)Cc1ccc(Cl)c(Cl)c1`: the relative growth was inactive: 0.997.

As to `CN(C)CCN1C[C@@H]2CN(C(=O)c3cnc[nH]3)C[C@H]2C1=O`, the relative growth was inactive: 0.973.

For the compound `CCC(=O)N(C)C[C@@H]1Oc2ncc(C#C[C@@H](C)O)cc2C(=O)N([C@@H](C)CO)C[C@@H]1C`, the relative growth is inactive: 1.04.

Consider `C[C@@H]1CN([C@H](C)CO)C(=O)c2cccc(NS(=O)(=O)c3cccs3)c2O[C@H]1CN(C)Cc1ccncc1`, for which the relative growth was inactive: 0.993.

Consider `N=C(CN1CCCCC1)NO`, for which the relative growth was inactive: 0.989.

With `COc1ccc(S(=O)(=O)N(C)C[C@H]2Oc3ccc(N(C)C)cc3CC(=O)N([C@@H](C)CO)C[C@H]2C)cc1`, the relative growth is inactive: 0.99.

`CCCCn1c(SCC(N)=O)nc2c1c(=O)n(C)c(=O)n2C`: the relative growth is inactive: 1.01.

On to `Cc1noc(C)c1NC(=O)Nc1ccc2c(c1)C(=O)N([C@@H](C)CO)C[C@H](C)[C@@H](CN(C)C(=O)Nc1cccc3ccccc13)OCCCC[C@@H](C)O2`, for which the relative growth was inactive: 0.991.

`COc1ccc(NC(=O)Nc2ccc3c(c2)C(=O)N([C@H](C)CO)C[C@H](C)[C@H](CN(C)S(C)(=O)=O)O3)cc1`: the relative growth is inactive: 0.993.

Regarding `C[C@H]1CN([C@@H](C)CO)C(=O)Cc2cc(NS(=O)(=O)c3ccc(F)cc3)ccc2O[C@@H]1CN(C)Cc1ccc(Oc2ccccc2)cc1`, the relative growth is inactive: 1.01.

Regarding `CCCNC(=O)C[C@@H]1CC[C@@H]2[C@@H](COc3ccc(NC(=O)c4ccc5c(c4)OCO5)cc3C(=O)N2C)O1`, the relative growth was inactive: 0.983.

Turning to `OC[C@@H]1CN(CCN2CCOCC2)C[C@H](n2cnc3c(NC4CC4)ncnc32)O1`, the relative growth was inactive: 1.02.

Consider `CNC(=O)[C@@H](c1ccccc1)N1CCc2cc(OC)c(OC)cc2[C@@H]1CCc1ccc(C(F)(F)F)cc1`, for which the relative growth is inactive: 1.02.

Turning to `C[C@@H]1CN([C@@H](C)CO)C(=O)c2cc(NC(=O)Cc3ccccc3)ccc2O[C@H]1CN(C)C(=O)Nc1cccc2ccccc12`, the relative growth is inactive: 1.

In the case of `COc1ccc(S(=O)(=O)N(C)C[C@H]2Oc3ccc(NC(=O)Cc4ccccc4)cc3CC(=O)N([C@@H](C)CO)C[C@H]2C)cc1`, the relative growth is inactive: 1.

Take `C[C@@H]1CN([C@@H](C)CO)C(=O)Cc2cc(NC(=O)c3ccncc3)ccc2O[C@@H]1CN(C)Cc1ccc2c(c1)OCO2`: the relative growth is inactive: 0.985.

In the case of `CC(C)NC(=O)N(C)C[C@H]1Oc2ccc(NS(=O)(=O)c3cn(C)cn3)cc2C(=O)N([C@@H](C)CO)C[C@H]1C`, the relative growth is inactive: 1.02.

Regarding `C=CC[C@H](CC(=O)N(CCO)Cc1ccccc1)C(=O)NCCOC(=O)[C@@H](CC=C)CC(=O)OC(C)(C)C`, the relative growth is inactive: 1.02.

In the case of `CCC1(c2ccccc2)NC(=O)N(C)C1=O` (configuration not stated), the relative growth was inactive: 0.931.

On to `ON/C=N\c1nonc1-c1cccnc1`, for which the relative growth is inactive: 1.02.

As to `C[C@@H]1CCCCO[C@H](CN(C)Cc2ccc(C(=O)Nc3ccccc3N)cc2)[C@@H](C)CN([C@H](C)CO)C(=O)c2cc(NS(=O)(=O)c3cccs3)ccc2O1`, the relative growth was inactive: 0.962.

On to `CN1C(=O)[C@H]2CN(C)c3ccccc3[C@H]2C1=O`, for which the relative growth is inactive: 0.995.

On to `C[C@@H]1CCCCO[C@@H](CN(C)S(=O)(=O)c2cccs2)[C@H](C)CN([C@@H](C)CO)C(=O)c2cc(NC(=O)Nc3ccc(C(F)(F)F)cc3)ccc2O1`, for which the relative growth is inactive: 1.02.

`C[C@@H]1CCCCO[C@@H](CN(C)CC2CC2)[C@H](C)CN([C@H](C)CO)C(=O)c2cc(NC(=O)Nc3ccccc3)ccc2O1`: the relative growth was inactive: 1.01.

Take `COc1ccc(S(=O)(=O)N(C)C[C@H]2Oc3ccc(NC(=O)c4ccncc4)cc3C(=O)N([C@H](C)CO)C[C@H]2C)cc1`: the relative growth is inactive: 1.03.

For the compound `CCn1c(=S)ccc2ccccc21`, the relative growth is inactive: 0.884.

`CNC1C(O)C(NC)C2OC3(O)C(=O)CC(C)OC3OC2C1O.Cl.Cl` (configuration not stated): the relative growth was active: 0.048.

For the compound `C[C@@H]1CN([C@H](C)CO)C(=O)c2cc(NC(=O)c3ccccc3)ccc2O[C@@H](C)CCCCO[C@H]1CN(C)Cc1ccncc1`, the relative growth is inactive: 1.01.

As for `C[C@H](CO)N1C[C@H](C)[C@@H](CN(C)S(=O)(=O)c2cn(C)cn2)Oc2ccc(NC(=O)Nc3ccc4c(c3)OCO4)cc2C1=O`, the relative growth is inactive: 1.01.

Take `C[C@H]1CN([C@@H](C)CO)C(=O)CCCn2cc(nn2)CO[C@@H]1CN(C)C(=O)Nc1ccc(N2CCCCC2)cc1`: the relative growth was inactive: 1.02.

Consider `Cc1nc(CN)c(C)o1`, for which the relative growth is inactive: 0.995.

For `Cc1ccc(S(=O)(=O)N[C@H]2CC[C@H](CC(=O)NCc3ccc(Cl)c(Cl)c3)O[C@H]2CO)cc1`, the relative growth is inactive: 0.989.

As for `Cc1noc(C)c1NC(=O)N(C)C[C@@H]1Oc2ccc(NC(=O)CCN3CCOCC3)cc2C(=O)N([C@H](C)CO)C[C@@H]1C`, the relative growth was inactive: 0.983.

For `COc1ccccc1CNC(=O)C[C@H]1CC[C@@H]2[C@H](COC[C@@H](O)CN2C(=O)Nc2ccc(F)cc2)O1`, the relative growth is inactive: 1.

Take `c1ccc(/N=C2\S/C(=N\C3CCCCC3)C3=C2CCCC3)cc1`: the relative growth was inactive: 1.04.

In the case of `C[C@@H]1CCCCO[C@H](CN(C)Cc2ccc(C(F)(F)F)cc2)[C@@H](C)CN([C@H](C)CO)C(=O)c2cc(NC(=O)Nc3ccc4c(c3)OCO4)ccc2O1`, the relative growth is inactive: 0.98.

Turning to `COc1cc(C(=O)NCCCCCC(=O)O)cc(OC)c1OC`, the relative growth is inactive: 1.12.

Consider `C[C@@H]1CN([C@H](C)CO)C(=O)c2cc(NS(=O)(=O)c3ccc(Cl)cc3)ccc2O[C@@H](C)CCCCO[C@H]1CN(C)C(=O)Nc1ccc(C(F)(F)F)cc1`, for which the relative growth was inactive: 1.03.

For the compound `COc1ccc2c3c(n(c2c1)C)[C@@H](CO)N(C[C@]13CCN(CC1)C(=O)CN(C)C)S(=O)(=O)C`, the relative growth is inactive: 1.01.

As for `O=C(C[C@@H]1C[C@H]2c3cc(NS(=O)(=O)c4ccccc4)ccc3O[C@H]2[C@@H](CO)O1)NC1CCCCC1`, the relative growth was inactive: 1.04.

Regarding `CO[C@@H]1CN(C)C(=O)c2cc(NC(=O)C3CC3)ccc2OC[C@@H](C)N(C(=O)C2CCOCC2)C[C@H]1C`, the relative growth was inactive: 0.967.

With `COC(=O)CNC(=O)c1ccccc1`, the relative growth was inactive: 0.981.

For `CCN(CC)CCc1nc(-c2ccccc2)no1.O=C(O)CC(O)(CC(=O)O)C(=O)O`, the relative growth was inactive: 0.968.

With `COc1ccc(S(=O)(=O)Nc2ccc3c(c2)C(=O)N([C@H](C)CO)C[C@H](C)[C@@H](CN(C)Cc2ccc(C(F)(F)F)cc2)OCCCC[C@@H](C)O3)cc1`, the relative growth is inactive: 1.03.

For `Cc1noc(C)c1NC(=O)Nc1ccc2c(c1)C(=O)N([C@@H](C)CO)C[C@H](C)[C@H](CN(C)C(=O)Nc1ccc(F)cc1)OCCCC[C@H](C)O2`, the relative growth was inactive: 0.965.

In the case of `Cc1noc(C)c1NC(=O)N(C)C[C@@H]1Oc2ccc(NS(=O)(=O)c3c(C)noc3C)cc2C(=O)N([C@H](C)CO)C[C@@H]1C`, the relative growth was inactive: 0.994.
